According to the supplement of paper PMC7266297:
Structures can show the parent of a compound that is named as a salt. Some of the results follow. Single values are uncertain, as repeats are few or missing.

test system: KB-3-1; test: growth inhibition relative to DMSO control (SRB); cervical cancer cells: KB-3-1 is the parent and KB-V1 overexpresses MDR1; SRB is the sulforhodamine B stain; higher = more growth inhibition; details: 1 µM; 72 h
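Also: Read-out is SRB optical density at 490 nm, with the control being wells given 0.5% DMSO vehicle, and compound added one day after cells were plated.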

SMILES	growth inhibition [%]
Cc1nn(-c2ccccc2)c(C)c1C=NN1CCN(Cc2ccccc2)CC1	7.63
CCN1C[C@H](C)n2c(c(O)c3c(=O)n(Cc4ccc(F)c(Cl)c4)nc(C(=O)NC)c32)C1=O	< 0
O=c1[nH]cnc2c1ncn2[C@H]1CC[C@@H](CO)O1 [Didanosine]	51
CCCCCCCCCCCC1=C(O)C(=O)C=C(O)C1=O [Embelin]	2.56
Cc1cc(Nc2nc(N[C@@H](C)c3ccc(F)cc3)c(C#N)cc2F)n[nH]1	50
COc1cc(-c2cc(-c3cccc(O)c3)cnc2N)cc(OC)c1OC	< 0
Cn1ncnc1[C@H]1c2n[nH]c(=O)c3cc(F)cc(c23)N[C@@H]1c1ccc(F)cc1	26
CC[C@@H]1C(=O)N(C)c2cnc(Nc3ccc(C(=O)NC4CCN(C)CC4)cc3OC)nc2N1C1CCCC1	94.1
COc1cc(NC(=O)c2ccc(-c3ccc(Cl)cc3)o2)cc(OC)c1	5.56
CC(=O)Nc1cccc2c1c(Sc1ccc(Cl)cc1)c(C)n2CC(=O)O	< 0
N#C[C@@H]1CCCN1C(=O)CNC12CC3CC(CC(O)(C3)C1)C2 [Vildagliptin (LAF-237)]	< 0
O=C(NS(=O)(=O)c1ccc(Br)s1)c1ccc(Cl)cc1Cl [Tasisulam]	< 0
CCS(=O)(=O)c1cccc(-c2cc(C(=O)NC3CCN(C)CC3)c(C)c3[nH]c4ncc(C)cc4c23)c1	55.6
Nc1nc2ccc(OC(F)(F)F)cc2s1 [Riluzole]	31.7
O=C1NC(=O)/C(=C/c2ccc3nccc(-c4ccncc4)c3c2)S1	75.1
O=C(C=Cc1ccccc1)NC(NC(=S)Nc1ccc(Cl)cc1)C(Cl)(Cl)Cl (stereo not given)	57.9
CCCC(=O)OCOC(=O)C1=C(C)NC(C)=C(C(=O)OC)C1c1cccc(Cl)c1Cl (stereo not given) [Clevidipine Butyrate]	25.5
COc1ccc(CNCc2cccc3ccccc23)cc1	12.4
Cc1cn([C@H]2C[C@H](N=[N+]=[N-])[C@@H](CO)O2)c(=O)[nH]c1=O [Zidovudine]	27.8
CN(C)Cc1ccc(S(=O)(=O)n2ccc(/C=C/C(=O)NO)c2)cc1 [Resminostat]	< 0

SMILES	growth inhibition [%]
O=C(NCc1ccccc1)c1csc(Nc2ccncn2)n1 [Thiazovivin]	17.6
CCc1ccc(OCc2ccccc2C(=O)Nc2ccc3nc(C)cc(N)c3c2)cc1	70.4
CC(C)C(=O)Nc1ccc([N+](=O)[O-])c(C(F)(F)F)c1 [Flutamide]	47.5
O=C(Nc1cccc(Cl)c1)Nc1ncc(CCNc2ncnc3ccsc23)s1 [SNS-314 Mesylate]	67.7
COC(=O)C1=C(C)NC(C)=C(C(=O)OC(C)C)C1c1cccc2nonc12 (stereo not given) [Isradipine]	18
Cc1[nH]nc2ccc(-c3cncc(OC[C@@H](N)Cc4ccccc4)c3)cc12	40.7
C#CCN[C@@H]1CCc2ccccc21 [Rasagiline Mesylate]	< 0
C[C@]12CC[C@H](O)CC1=CC[C@@H]1[C@@H]2CC[C@]2(C)C(n3cnc4ccccc43)=CC[C@@H]12 [Galeterone]	20.5
COc1cc(-c2ncn(/C=C\C(=O)OC(C)C)n2)cc(C(F)(F)F)c1	80.1
Cc1cc(Nc2ncnc3ccc(-c4ccc(CNCCS(C)(=O)=O)o4)cc23)ccc1Oc1ccn2ncnc2c1 [HER2-Inhibitor-1]	< 0
Cc1cnc(NC(=O)Nc2cc(Br)c(C)cc2OC[C@@H]2CNCCO2)cn1	32.2
Cc1cccc(-c2nn3c(c2-c2ccnc4ccc(C(N)=O)cc24)CCC3)n1	< 0
CCC(=O)N1CCN(c2ccc(-n3c(=O)ccc4cnc5ccc(-c6cnc7ccccc7c6)cc5c43)cc2C(F)(F)F)CC1 [Torin 1]	82.4
O=C(NOC[C@H](O)CO)c1ccc(F)c(F)c1Nc1ccc(I)cc1F	86
CCN(Cc1ccncc1)C(=O)C(CO)c1ccccc1 (stereo not given) [Tropicamide]	47.1
COc1cccc2c1C(=O)c1c(O)c3c(c(O)c1C2=O)C[C@@](O)(C(=O)CO)C[C@@H]3O[C@H]1C[C@H](N)[C@H](O[C@@H]2CCCCO2)[C@H](C)O1 [Pirarubicin]	71.3
Cc1[nH]c2ccccc2c1CCNC(=O)c1cccs1	47.5
CN(C)C(=O)c1cc2cnc(Nc3ccc(N4CCNCC4)cn3)nc2n1C1CCCC1	47.2
O=C(O)[C@]1(Cc2cccc(Nc3nccs3)n2)CC[C@@H](Oc2cccc(Cl)c2F)CC1	85.2
COc1ccc(COc2ccc(Cc3cnc(N)nc3N)cc2OC)cc1	43.3

test system: KB-V1; test: as above; details: 1 µM; 72 h

SMILES	growth inhibition [%]
Cc1nn(-c2ccccc2)c(C)c1C=NN1CCN(Cc2ccccc2)CC1	3.67
CCN1C[C@H](C)n2c(c(O)c3c(=O)n(Cc4ccc(F)c(Cl)c4)nc(C(=O)NC)c32)C1=O	< 0
O=c1[nH]cnc2c1ncn2[C@H]1CC[C@@H](CO)O1 [Didanosine]	23
CCCCCCCCCCCC1=C(O)C(=O)C=C(O)C1=O [Embelin]	11
Cc1cc(Nc2nc(N[C@@H](C)c3ccc(F)cc3)c(C#N)cc2F)n[nH]1	96.3
COc1cc(-c2cc(-c3cccc(O)c3)cnc2N)cc(OC)c1OC	< 0
Cn1ncnc1[C@H]1c2n[nH]c(=O)c3cc(F)cc(c23)N[C@@H]1c1ccc(F)cc1	32.2
CC[C@@H]1C(=O)N(C)c2cnc(Nc3ccc(C(=O)NC4CCN(C)CC4)cc3OC)nc2N1C1CCCC1	95.8
COc1cc(NC(=O)c2ccc(-c3ccc(Cl)cc3)o2)cc(OC)c1	50.9
CC(=O)Nc1cccc2c1c(Sc1ccc(Cl)cc1)c(C)n2CC(=O)O	< 0
N#C[C@@H]1CCCN1C(=O)CNC12CC3CC(CC(O)(C3)C1)C2 [Vildagliptin (LAF-237)]	< 0
O=C(NS(=O)(=O)c1ccc(Br)s1)c1ccc(Cl)cc1Cl [Tasisulam]	< 0
CCS(=O)(=O)c1cccc(-c2cc(C(=O)NC3CCN(C)CC3)c(C)c3[nH]c4ncc(C)cc4c23)c1	14.1
Nc1nc2ccc(OC(F)(F)F)cc2s1 [Riluzole]	14.1
O=C1NC(=O)/C(=C/c2ccc3nccc(-c4ccncc4)c3c2)S1	77.4
O=C(C=Cc1ccccc1)NC(NC(=S)Nc1ccc(Cl)cc1)C(Cl)(Cl)Cl (stereo not given)	13
CCCC(=O)OCOC(=O)C1=C(C)NC(C)=C(C(=O)OC)C1c1cccc(Cl)c1Cl (stereo not given) [Clevidipine Butyrate]	33.9
COc1ccc(CNCc2cccc3ccccc23)cc1	13.3
Cc1cn([C@H]2C[C@H](N=[N+]=[N-])[C@@H](CO)O2)c(=O)[nH]c1=O [Zidovudine]	11.7
CN(C)Cc1ccc(S(=O)(=O)n2ccc(/C=C/C(=O)NO)c2)cc1 [Resminostat]	27.7

SMILES	growth inhibition [%]
O=C(NCc1ccccc1)c1csc(Nc2ccncn2)n1 [Thiazovivin]	46
CCc1ccc(OCc2ccccc2C(=O)Nc2ccc3nc(C)cc(N)c3c2)cc1	80.4
CC(C)C(=O)Nc1ccc([N+](=O)[O-])c(C(F)(F)F)c1 [Flutamide]	20.3
O=C(Nc1cccc(Cl)c1)Nc1ncc(CCNc2ncnc3ccsc23)s1 [SNS-314 Mesylate]	67.3
COC(=O)C1=C(C)NC(C)=C(C(=O)OC(C)C)C1c1cccc2nonc12 (stereo not given) [Isradipine]	1.7
Cc1[nH]nc2ccc(-c3cncc(OC[C@@H](N)Cc4ccccc4)c3)cc12	82
C#CCN[C@@H]1CCc2ccccc21 [Rasagiline Mesylate]	40.2
C[C@]12CC[C@H](O)CC1=CC[C@@H]1[C@@H]2CC[C@]2(C)C(n3cnc4ccccc43)=CC[C@@H]12 [Galeterone]	11.9
COc1cc(-c2ncn(/C=C\C(=O)OC(C)C)n2)cc(C(F)(F)F)c1	76.1
Cc1cc(Nc2ncnc3ccc(-c4ccc(CNCCS(C)(=O)=O)o4)cc23)ccc1Oc1ccn2ncnc2c1 [HER2-Inhibitor-1]	< 0
Cc1cnc(NC(=O)Nc2cc(Br)c(C)cc2OC[C@@H]2CNCCO2)cn1	6.38
Cc1cccc(-c2nn3c(c2-c2ccnc4ccc(C(N)=O)cc24)CCC3)n1	6.54
CCC(=O)N1CCN(c2ccc(-n3c(=O)ccc4cnc5ccc(-c6cnc7ccccc7c6)cc5c43)cc2C(F)(F)F)CC1 [Torin 1]	84.4
O=C(NOC[C@H](O)CO)c1ccc(F)c(F)c1Nc1ccc(I)cc1F	66.2
CCN(Cc1ccncc1)C(=O)C(CO)c1ccccc1 (stereo not given) [Tropicamide]	22.3
COc1cccc2c1C(=O)c1c(O)c3c(c(O)c1C2=O)C[C@@](O)(C(=O)CO)C[C@@H]3O[C@H]1C[C@H](N)[C@H](O[C@@H]2CCCCO2)[C@H](C)O1 [Pirarubicin]	56.5
Cc1[nH]c2ccccc2c1CCNC(=O)c1cccs1	9.26
CN(C)C(=O)c1cc2cnc(Nc3ccc(N4CCNCC4)cn3)nc2n1C1CCCC1	13
O=C(O)[C@]1(Cc2cccc(Nc3nccs3)n2)CC[C@@H](Oc2cccc(Cl)c2F)CC1	83.8
COc1ccc(COc2ccc(Cc3cnc(N)nc3N)cc2OC)cc1	5.56
